Test results reported in the supplement of paper PMC4166925.
± gives the standard deviation of the averaged measurements. Over roughly 33,000 sequences, “E-score (dimensionless, -0.5 to 0.5)” has its median near -0.046; the highest 2% begin near 0.36. Some of the results follow.

tested on: T1, SpTbr T-box DNA-binding domain (GST fusion); assay: PBM E-score of 8-mer (E-score (dimensionless, -0.5 to 0.5)); Tbr is Tbrain of the sea star Patiria miniata (Pm) or the sea urchin Strongylocentrotus purpuratus (Sp); higher = stronger binding preference; most listed sequences are background and not binding sites; details: the construct has about 5 more residues each side
T1 sequence: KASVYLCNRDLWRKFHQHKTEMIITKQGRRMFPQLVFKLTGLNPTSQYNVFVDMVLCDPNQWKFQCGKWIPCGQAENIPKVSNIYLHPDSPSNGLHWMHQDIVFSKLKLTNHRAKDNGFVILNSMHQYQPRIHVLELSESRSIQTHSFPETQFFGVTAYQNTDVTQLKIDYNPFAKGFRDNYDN
Outline: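 Primer extension turned Universal Agilent oligonucleotide arrays double-stranded. They were incubated with 200 nM protein in PBS (pH 7.5); the protein was a GST-fused Tbr T-box DNA-binding domain expressed in BL21 E. coli at 20 °C and purified on glutathione. Every ungapped 8-mer was scored from the scanned, quantified probe intensities, and the Universal PBM Analysis Suite gave each an enrichment E-score averaged over duplicate arrays.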

Sequence	PBM E-score of 8-mer
AGGTTTGA	0.0298 ± 0.023
AAGAGGAA	-0.192 ± 0.072
GGCGGTAC	0.00445 ± 0.029
GATGCGCA	0.014 ± 0.028
ATGTGTGG	0.356 ± 0.007
TCAGCGCA	0.0158 ± 0.036
GCTTGGCC	-0.297 ± 0.015
CTAGAATC	-0.0795 ± 0.0046
CTGTCACC	0.396 ± 0.0078
CTTTAAAG	0.0215 ± 0.12
CATGTCAG	-0.0973 ± 0.0046
AGTGAGCC	0.00758 ± 0.039
GATCAAAC	0.0452 ± 0.025
AGTTGACG	0.226 ± 0.0068
GAAGCCTA	-0.182 ± 0.037
TCAGCCCA	-0.148 ± 0.021
CATCACTC	0.174 ± 0.013
ACACGAAC	0.0531 ± 0.046
CGTTTCAC	0.0842 ± 0.04
CACTAACA	0.317 ± 0.0051
ATCGTCAT	-0.00478 ± 0.05
CCCGTACG	-0.225 ± 0.054
ACGACTGG	0.0652 ± 0.014
CCTGCCTC	0.0708 ± 0.019
CCTTCAAC	-0.0636 ± 0.076

Sequence	PBM E-score of 8-mer
CGGGGCAA	-0.153 ± 0.13
AATTTCCT	-0.0532 ± 0.12
AGACTATA	0.0119 ± 0.036
CAGGATCC	-0.233 ± 0.036
CACGGACG	-0.0275 ± 0.00073
CGCTTGCC	0.0884 ± 0.049
TTAGAGAA	-0.0826 ± 0.021
AGTAAACC	-0.208 ± 0.018
CGACGTCA	0.134 ± 0.071
CAATTAAA	-0.14 ± 0.11
GGGAGGAC	-0.319 ± 0.065
CGGACACA	0.106 ± 0.034
ACCGAAGT	0.0496 ± 0.038
CCCTCAGA	-0.103 ± 0.011
ATGCCTCC	-0.337 ± 0.019
AATAGTCC	-0.187 ± 0.0099
GAACCCCC	-0.0164 ± 0.036
GATCGGAC	-0.287 ± 0.013
ATATGCAC	-0.106 ± 0.034
AGGTGGTC	-0.117 ± 0.11
GTTACCCA	0.0592 ± 0.014
ATCGTTGG	0.0428 ± 0.0038
AAGTATCA	0.0637 ± 0.013
AAGATTAC	-0.136 ± 0.048
ACCTGAGG	0.146 ± 0.079

Sequence	PBM E-score of 8-mer
GCGATAGA	0.132 ± 0.012
ATATAGCA	0.0526 ± 0.037
ACACGCGG	0.228 ± 0.068
GCTACACC	0.162 ± 0.0049
CAAACCAA	-0.169 ± 0.062
ACATGTAG	-0.101 ± 0.021
GCCTGGAA	-0.285 ± 0.0083
CAACACTG	0.27 ± 0.056
CGCTACCC	0.0729 ± 0.073
AAACTGCC	0.00444 ± 0.0014
CGTTCAGA	-0.25 ± 0.035
AGTACAAA	-0.1 ± 0.079
CGGCGATA	0.094 ± 0.028
CGATAACA	0.289 ± 0.0068
ATGATGCA	0.0765 ± 0.045
ATTGCATA	-0.133 ± 0.057
CCGCAGAG	-0.243 ± 0.021
AACACGAG	0.123 ± 0.015
AGCTAACC	-0.324 ± 0.015
ACTGATAT	0.00884 ± 0.022
ACACAAAT	-0.0579 ± 0.0065
AAGCATGG	-0.143 ± 0.037
AGAAGCCA	-0.209 ± 0.069
ATGAGGAG	-0.117 ± 0.007
CCCGTCAC	0.344 ± 0.013

Sequence	PBM E-score of 8-mer
ATCGATGC	-0.0678 ± 0.067
GACGATAA	0.0937 ± 0.083
CCGACTAG	0.0418 ± 0.044
AAATTTAT	-0.146 ± 0.076
CTTAATGA	-0.1145 ± 0.00067
AGCGGCAT	-0.0852 ± 0.094
GTCCAGGA	-0.101 ± 0.056
GCATTTCC	-0.0411 ± 0.027
TTCACCAA	-0.0676 ± 0.055
AGTATCAC	0.159 ± 0.034
GATCTTCC	-0.162 ± 0.04
AATCACGG	0.0247 ± 0.037
GTCGTACA	-0.218 ± 0.024
ATGCGGAA	-0.154 ± 0.043
CCACACGG	0.0912 ± 0.023
AACACTAC	0.212 ± 0.0039
CGGCACAG	0.0946 ± 0.029
GAGATTTA	-0.0919 ± 0.039
AGAATCGC	0.165 ± 0.045
CACTATGC	0.138 ± 0.05
CCGCGAAA	0.32 ± 0.025
AGCCGTGC	-0.124 ± 0.041
ACTTAATA	0.0193 ± 0.093
CAAAGCTA	-0.0638 ± 0.037
ACGCCAAA	0.145 ± 0.023

Sequence	PBM E-score of 8-mer
GGATTGAC	0.11 ± 0.019
ATACCGGC	-0.214 ± 0.022
CTGTTTAA	-0.0429 ± 0.0017
AATCGCAA	0.231 ± 0.0071
CCTTCGTA	0.00169 ± 0.087
CTTTCGGC	0.0198 ± 0.013
CACATCTG	0.267 ± 0.014
AGTACGGG	-0.227 ± 0.012
TAAGCTAA	-0.295 ± 0.01
GTCGCCAC	0.355 ± 0.011
AAGTAAAC	-0.0429 ± 0.048
ATGGATAC	-0.334 ± 0.0065
AAACAAAG	0.0406 ± 0.032
TCTGGTAA	0.0318 ± 0.036
CGATAGTC	0.06612 ± 0.00037
CGTGGCAA	0.136 ± 0.0024
TCATTTAA	-0.193 ± 0.036
GTACCGAC	-0.085 ± 0.02
AGAACTCT	-0.19 ± 0.052
AGGCACCG	-0.0278 ± 0.12
GAGAGGCA	-0.156 ± 0.038
CCACACCA	0.314 ± 0.057
ATCGGCTA	-0.0768 ± 0.086
TATAACGA	-0.0926 ± 0.023
CCCACCTA	0.282 ± 0.013

Sequence	PBM E-score of 8-mer
ACGAGTGC	0.153 ± 0.03
ACTAAACC	-0.0636 ± 0.047
CCGTTGAA	-0.16 ± 0.011
CAGAATCC	-0.0892 ± 0.012
CGCCACCA	0.264 ± 0.074
ATGGTTAC	-0.2223 ± 0.0007
GCGTAACC	-0.00734 ± 0.078
CATATAGC	-0.162 ± 0.063
AAGGGCAG	-0.183 ± 0.054
ACAGTAAA	-0.223 ± 0.092
GGATTGGA	-0.187 ± 0.026
CGACTTAC	0.104 ± 0.056
GAGTGACC	-0.0175 ± 0.019
GGCAATTA	0.0477 ± 0.0015
CATACACG	-0.0952 ± 0.029
CTGCAGGA	-0.194 ± 0.053
CGAGCTCA	0.0183 ± 0.042
CAGGTAAG	0.0839 ± 0.015
AGGCGGTA	0.0362 ± 0.0049
GTAAGCGA	0.0852 ± 0.012
CCATAAAC	-0.173 ± 0.017
TCCGAGAA	0.08936 ± 0.00029
GAATGACA	0.263 ± 0.0075
AATAGCGT	0.0911 ± 0.081
GGGTGGCA	0.288 ± 0.014

Sequence	PBM E-score of 8-mer
GGTCCCAC	0.2764 ± 0.0004
AGACGCGC	0.13 ± 0.03
CGACCCGA	-0.0816 ± 0.051
AAGAATGT	-0.0437 ± 0.045
CCAGGCGG	-0.00073 ± 0.033
AGGTCGAA	-0.182 ± 0.024
ATTAAGGC	-0.102 ± 0.047
CACTTTAC	0.2726 ± 0.0026
CTAATCAA	-0.0132 ± 0.1
CGTCTAAC	-0.055 ± 0.02
AGGACGCC	-0.0398 ± 0.026
CAGCGAAA	-0.0118 ± 0.0072
ATGGGGTG	0.174 ± 0.067
GGTTACGA	-0.142 ± 0.062
GTGGCCTA	-0.0963 ± 0.11
CCCTTTCA	-0.189 ± 0.054
GCTAATAC	0.0247 ± 0.033
CTCTTCCA	-0.362 ± 0.015
ACATTATA	-0.0536 ± 0.054
CACGGGGA	-0.101 ± 0.035
ATTACAAG	-0.031 ± 0.023
TTGATAAA	-0.177 ± 0.11
